For experiment [1], the target named is GST-SUV39H1 cycSET (human) (UniProt O43463). As to the kind of experiment: pull-down; wild type or mutant GST-SUV39H1 or GST (2 ug) bound to Glutathione-Sepharose 4B, mixed with His-tagged Tax (2 ug) in cold PBS, 4°C, one hour; immunoblot with Lt-4; band intensities by NIH Image; both purified.
Experiment [2] deals with GST-SUV39H1 ΔN89 (human) (UniProt O43463). Described as above.
Experiment [3] concerns the target GST-SUV39H1 N44 (human) (UniProt O43463). The description is as above.
Experiment [4] concerns the target bacterially expressed GST-SUV39H1, wild type (human) (UniProt O43463). The description is as above.
The target of experiment [5] is T1, GST-tagged SUV39H1 (pMEG-SUV39H1) (human) (UniProt O43463).
T1 sequence: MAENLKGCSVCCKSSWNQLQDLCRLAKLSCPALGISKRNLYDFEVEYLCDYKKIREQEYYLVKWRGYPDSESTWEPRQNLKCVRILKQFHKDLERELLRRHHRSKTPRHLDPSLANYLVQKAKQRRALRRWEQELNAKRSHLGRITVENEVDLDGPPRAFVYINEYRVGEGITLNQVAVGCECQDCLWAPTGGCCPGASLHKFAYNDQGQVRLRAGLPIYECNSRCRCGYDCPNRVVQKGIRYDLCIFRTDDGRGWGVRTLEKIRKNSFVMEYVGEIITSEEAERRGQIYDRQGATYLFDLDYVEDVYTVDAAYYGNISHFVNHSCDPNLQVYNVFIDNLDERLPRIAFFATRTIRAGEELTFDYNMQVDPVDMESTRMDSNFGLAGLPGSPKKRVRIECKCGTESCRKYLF
Description: pull-down; HEK293T cells co-transfected with GST-SUV39H1 or GST and Tax; after 48 h lysate affinity purified with Glutathione Sepharose 4B; immunoblot with anti-Tax Lt-4.

No constants are given. Whether binding was seen depends on the method and setting. For some assays here: In cells and extracts the contact can be indirect. Some results given as binding are weak or reduced against the parent protein; the word gives no strength. For some assays here: Tags and fused reporters may be left off the sequences shown.

With “histidine-tagged wild type Tax (His-Tax) (from UniProt P03409 1-353)”, the binding entry is “binds” in experiment [1], “binds” in experiment [2], “no binding” in experiment [3] and “binds” in experiment [4].

Consider “wild type HTLV-1 Tax (pCG-Tax) (from UniProt P03409 1-353)”, for which, in experiment [5], the binding result was “binds”.

The values above are taken from article PMC1363732.
